{"source": "PubChem BioAssay AID1347165", "about": "(National Center for Advancing Translational Sciences (NCATS), 2019)", "note": "“And” between values parts separate entries of the source, which are not always exact repeats. Identical values can stand only once. About 5,700 (2.6%) of roughly 220,000 compounds were called active. Inconclusive means that the source gave no clear call. Such entries were picked first, then a sample of the others. The call rests on the fitted dose curve; in most records, active means well fitted inhibition curve with a large enough effect; inconclusive means small, poorly fitted or top-dose-only effect; inactive means no such curve, though single readings can be large or run the other way. Where the call is inconclusive, the potency comes from a doubtful curve fit. Potency means the concentration at half of the fitted maximal effect; tags describe the fitted curve by direction and shape."}
{"biological_target": "Lysine-specific demethylase 5B (Homo sapiens) (UniProt Q9UGL1)", "sequence (Q9UGL1 whole entry, looked up)": "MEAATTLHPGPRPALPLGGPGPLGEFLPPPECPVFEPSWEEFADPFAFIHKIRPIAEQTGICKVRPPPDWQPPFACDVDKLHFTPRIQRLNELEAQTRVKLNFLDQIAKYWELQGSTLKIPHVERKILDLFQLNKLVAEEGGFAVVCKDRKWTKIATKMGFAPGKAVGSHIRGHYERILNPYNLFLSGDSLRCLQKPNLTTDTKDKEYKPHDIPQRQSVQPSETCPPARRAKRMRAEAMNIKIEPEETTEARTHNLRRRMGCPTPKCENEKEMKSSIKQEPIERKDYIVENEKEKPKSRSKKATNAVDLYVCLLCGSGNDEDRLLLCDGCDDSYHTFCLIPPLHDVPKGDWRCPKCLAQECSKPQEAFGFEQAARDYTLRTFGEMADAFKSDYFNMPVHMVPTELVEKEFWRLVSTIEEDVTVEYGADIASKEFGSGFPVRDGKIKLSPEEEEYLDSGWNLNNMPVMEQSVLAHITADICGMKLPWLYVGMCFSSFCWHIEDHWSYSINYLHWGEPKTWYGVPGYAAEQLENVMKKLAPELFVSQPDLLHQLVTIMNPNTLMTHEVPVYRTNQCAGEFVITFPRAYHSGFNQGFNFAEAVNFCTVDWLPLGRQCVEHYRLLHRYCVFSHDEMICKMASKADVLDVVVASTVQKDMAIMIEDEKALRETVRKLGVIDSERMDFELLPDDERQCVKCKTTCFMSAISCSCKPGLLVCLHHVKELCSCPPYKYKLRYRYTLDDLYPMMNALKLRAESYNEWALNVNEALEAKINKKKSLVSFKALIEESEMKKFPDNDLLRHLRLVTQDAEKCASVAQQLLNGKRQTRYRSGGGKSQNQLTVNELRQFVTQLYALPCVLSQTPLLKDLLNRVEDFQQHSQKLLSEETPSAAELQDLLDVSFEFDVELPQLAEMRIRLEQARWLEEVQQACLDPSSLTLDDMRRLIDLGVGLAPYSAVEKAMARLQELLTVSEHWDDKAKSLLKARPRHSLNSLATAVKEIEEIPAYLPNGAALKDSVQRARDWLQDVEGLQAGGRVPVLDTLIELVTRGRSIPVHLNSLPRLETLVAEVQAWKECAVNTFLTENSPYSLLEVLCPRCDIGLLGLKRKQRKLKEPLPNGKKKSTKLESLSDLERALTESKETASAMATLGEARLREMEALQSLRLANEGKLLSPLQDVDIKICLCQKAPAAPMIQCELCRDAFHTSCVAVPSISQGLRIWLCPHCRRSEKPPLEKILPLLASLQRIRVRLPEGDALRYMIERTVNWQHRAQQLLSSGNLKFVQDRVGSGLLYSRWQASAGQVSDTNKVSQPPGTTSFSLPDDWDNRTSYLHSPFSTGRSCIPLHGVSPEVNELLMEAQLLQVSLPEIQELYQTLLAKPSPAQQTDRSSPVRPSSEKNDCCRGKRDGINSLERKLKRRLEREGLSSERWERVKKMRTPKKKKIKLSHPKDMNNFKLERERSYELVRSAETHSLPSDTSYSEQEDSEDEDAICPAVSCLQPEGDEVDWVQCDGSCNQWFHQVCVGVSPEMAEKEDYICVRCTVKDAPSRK", "assay": "Primary screen for KDM5B Histone Demethylases FDH-coupled qHTS; further: nearly all actives have a fitted effect of over 70% in size; on activity change, negative = inhibition: 0% is about no effect", "settings": "FDH-coupled NADH fluorescence (FDH is formaldehyde dehydrogenase); activity change, negative = inhibition: at 57.7 µM (top of the series) unless noted", "outline": "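qHTS format, multiple compound concentrations. Buffer 50 mM HEPES pH 7.5/0.01% Tween-20; 200 nM KDM5BΔAP final; 10 min compound preincubation; substrate-mix levels 12.5 µM peptide, 25 µM α-KG, 0.25 mM NAD⁺; 30 min RT; ΔRFU.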"}
{"smiles": "c1csc(-c2nnc(COc3ccc(-n4cnnn4)cc3)o2)c1", "Potency": "inactive"}
{"smiles": "Cc1ccc(Nc2nc(-c3ccccc3)c(C(=O)Nc3cccnc3)s2)cc1", "Potency": "inconclusive: 25.1 µM [inhibitor, partial curve, poor fit]"}
{"smiles": "O=C1Nc2ccc(-c3cccs3)cc2C(=O)N2CC[C@H](NS(=O)(=O)c3cccs3)[C@@H]12", "Potency": "inconclusive: 28.2 µM [inhibitor, partial curve, poor fit]"}
{"smiles": "CC(C)c1nccn1CCCNc1nc(-c2ccncc2)nc2c1cnn2C", "Potency": "active: 22.4 µM"}
{"smiles": "COc1cccc(C(=O)NN2CC(O)=C(c3nc(-c4ccc(Cl)cc4)cs3)C2=N)c1", "Potency": "inactive"}
{"smiles": "c1cc(-c2ccc3c(c2)OCCCO3)n2ncnc2n1", "Potency": "active: 15.8 µM"}
{"smiles": "COc1cc(F)ccc1-c1cc2c(nc1-c1ccccc1)nc(C(=O)NCCN(C)C)n2C", "Potency": "active: 31.6 µM"}
{"smiles": "CCN1CCN(c2nc3c(s2)CN(C(=O)CCC(C)C)CC3)CC1", "Potency": "inconclusive: 22.4 µM [inhibitor, partial curve, poor fit]"}
{"smiles": "O=C(NCc1sc2ccccc2c1Cl)[C@H]1CCC[C@H](O)C1", "Potency": "inactive"}
{"smiles": "COc1cc(/C=C/C(=O)c2cc3ccccc3o2)ccc1OC(C)C", "Potency": "inconclusive: 28.2 µM [inhibitor, single point]"}
{"smiles": "CC(C)Oc1ccc(CNC(=O)c2ccc(Cn3ccn4nc5c(c4c3=O)CCCC5)cc2)cc1", "Potency": "active: 25.1 µM"}
{"smiles": "CCOC(=O)COc1ccc2c(C)c(CCC(C)C)c(=O)oc2c1", "Potency": "inconclusive: 22.4 µM [inhibitor, partial curve, poor fit]"}
{"smiles": "CCOc1ccc(CNC(=O)c2ccc3c(c2)c(C)c(C)n3Cc2ccccc2)cc1OC", "Potency": "inconclusive: 14.1 µM [inhibitor, partial curve, poor fit]"}
{"smiles": "Cc1cccc(OCC2(CNC(=O)C3CCCC3)C[C@@H](O)[C@@H](O)C2)n1", "note": "(stereo partly specified)", "Potency": "inconclusive: 31.6 µM [inhibitor, partial curve]"}
{"smiles": "CCOC(=O)c1cccc(NC(=O)N2CC[C@@H](CC(=O)NCc3ccccc3OC)[C@@H](CC)C2)c1", "Potency": "inconclusive: 22.4 µM [inhibitor, single point]"}
{"smiles": "CC1Cc2cc(C(=O)Nc3cccc(-c4nnc5n4CCCCC5)c3)ccc2N1S(C)(=O)=O", "note": "(stereo unspecified)", "Potency": "inactive"}
{"smiles": "CC(=O)Nc1ccc(-c2ccc(=O)n3c2[C@@H]2C[C@@H](CN(C(=O)COc4ccccc4)C2)C3)cc1", "Potency": "inconclusive: 22.4 µM [inhibitor, partial curve, poor fit]"}
{"smiles": "COc1ccc2c(c1)c(C(C(=O)O)N1CCN(Cc3ccncc3)CC1)cn2CCC(=O)O", "note": "(stereo unspecified)", "Potency": "inconclusive: 35.5 µM [inhibitor, partial curve, poor fit]"}
{"smiles": "Cn1cccc1C(=O)NC[C@H]1O[C@@H](CO)[C@@H](O)[C@H]1N1CCOCC1", "Potency": "inconclusive: 25.1 µM [inhibitor, partial curve, poor fit]"}
{"smiles": "Cc1c(Cl)cccc1-c1ccc(CNCCSc2nnnn2-c2ccccc2)o1", "Potency": "inconclusive: 17.8 µM [inhibitor, partial curve, poor fit]"}
{"smiles": "COc1ccccc1C(=O)Nc1ccc2nc(SCC(=O)N(C)c3ccccc3)sc2c1", "Potency": "inconclusive: 35.5 µM [inhibitor, partial curve, poor fit]"}
{"smiles": "CCS(=O)(=O)c1ncc(N(Cc2ccccc2)Cc2ccco2)c(C(=O)Nc2cccc(Cl)c2C)n1", "Potency": "inconclusive: 8.91 µM [inhibitor, partial curve, poor fit]"}
{"smiles": "CCOc1ccc(NC(=O)c2c(Nc3ccccc3C)sc(C(=O)c3ccccc3)c2N)cc1", "Potency": "inconclusive: 17.8 µM [inhibitor, partial curve, poor fit]"}
{"smiles": "CCOc1ccccc1CN1CCn2c(nnc2[C@@H]2C[C@@H](O)CN2Cc2cccnc2)C1", "Potency": "inconclusive: 28.2 µM [inhibitor, partial curve, poor fit]"}
{"smiles": "Cc1ccccc1Oc1nc2c(C)cccn2c(=O)c1/C=C(\\C#N)C(=O)NC1CCS(=O)(=O)C1", "note": "(stereo unspecified)", "Potency": "inconclusive: 35.5 µM [inhibitor, single point]"}
{"smiles": "COCCOc1ccc2c(n1)CCN(C(=O)c1ccc(OC)nc1)C2", "Potency": "inconclusive: 25.1 µM [inhibitor, partial curve, poor fit]"}
{"smiles": "Cc1ccc(-n2c(=O)c3sc4ccccc4c3n(CC(=O)NC3CCCC3)c2=O)cc1C", "Potency": "inconclusive: 2.82 µM [inhibitor, partial curve, poor fit]"}
{"smiles": "COc1cc(OC)cc(C(=O)/C(=C/c2cccs2)c2nc3ccccc3o2)c1", "Potency": "inactive"}
{"smiles": "COc1ccc(OC)c(CCNC(=O)c2cc3c(s2)-c2c(C)cccc2OC3)c1", "Potency": "inconclusive: 28.2 µM [inhibitor, partial curve, poor fit] and inconclusive: 35.5 µM [inhibitor, partial curve, poor fit]"}
{"smiles": "Cc1ccc(Nc2c(-c3c[nH]c4ccccc34)nc3ccccn23)cc1", "Potency": "inconclusive: 35.5 µM [inhibitor, partial curve, poor fit]"}
{"smiles": "CC(C)Oc1ccccc1-c1nc(SCC(=O)c2ccc(F)cc2)n[nH]1", "activity change, negative = inhibition": "inconclusive: -33.3% [inhibitor]"}
{"smiles": "CCc1ccc(N/C(N)=N/c2nc(C)cc(C)n2)cc1", "Potency": "inactive"}
{"smiles": "CCOC(=O)C(CC)n1nnc2sc(-c3ccccc3)cc2c1=O", "note": "(stereo unspecified)", "Potency": "inconclusive: 31.6 µM [inhibitor, partial curve, poor fit]"}
{"smiles": "COc1ccc2c(C)c(CCC(=O)NCCCN3CCOCC3)c(=O)oc2c1", "Potency": "inconclusive: 25.1 µM [inhibitor, partial curve, poor fit]"}
{"smiles": "O=C(NCCS(=O)(=O)N1CCN(c2ccc(F)cc2)CC1)C(c1ccccc1)c1ccccc1", "Potency": "inconclusive: 14.1 µM [inhibitor, partial curve, poor fit]"}
{"smiles": "Cc1cccc(N(C(=O)c2snc(C(N)=O)c2N)C(C(=O)NC2CCCC2)c2ccncc2)c1", "note": "(stereo unspecified)", "Potency": "inconclusive: 28.2 µM [inhibitor, partial curve, poor fit]"}
{"smiles": "Fc1ccc(C(c2nnc(-c3ccccc3)o2)N2CCN(c3cccc(Cl)c3)CC2)cc1", "note": "(stereo unspecified)", "Potency": "inconclusive: 28.2 µM [inhibitor, single point]"}
{"smiles": "Cn1c2ccccc2c2cnn(CC(=O)NCCCN3CCCCC3)c(=O)c21", "Potency": "inconclusive: 35.5 µM [inhibitor, partial curve, poor fit]"}
{"smiles": "CCCCCC(C=O)CCC(=O)c1ccc(Br)cc1", "note": "(stereo unspecified)", "Potency": "inactive"}
{"smiles": "O=C1C[C@H]2CC[C@@H](CN1)N2C(=O)c1csc2nc(-c3ccccc3Cl)cn12", "Potency": "inconclusive: 11.2 µM [inhibitor, partial curve, poor fit]"}
{"smiles": "Cc1ccccc1-c1noc(CSc2nc3cc4c(cc3c(=O)n2Cc2ccco2)OCO4)n1", "Potency": "inactive"}
{"smiles": "O[C@H]1CCCC[C@@H]1NC1CCN(c2nc3ccc(Cl)cc3s2)CC1", "Potency": "inactive"}
{"smiles": "N#Cc1cccc(NC(=O)NCCNc2ccccn2)c1", "Potency": "inactive"}
{"smiles": "COc1ccc(-c2nc(C)c(CCNS(=O)(=O)c3ccc(Cl)s3)s2)cc1", "Potency": "inconclusive: 28.2 µM [inhibitor, partial curve, poor fit]"}
{"smiles": "COCCn1cnnc1CN(C)C(=O)c1ccc2nc(C)cn2c1", "Potency": "inconclusive: 22.4 µM [inhibitor, single point]"}
{"smiles": "CCOc1ccccc1-n1nnc(C(=O)Nc2nnc(CC)s2)c1C", "Potency": "inactive"}
{"smiles": "CC1(C(=O)NCc2cccnc2)CCCc2cnc(NCc3ccccc3)nc21", "note": "(stereo unspecified)", "Potency": "inconclusive: 35.5 µM [inhibitor, partial curve, poor fit]"}
{"smiles": "COc1ccccc1N1CCN([C@@H]2[C@H](O)[C@H](CO)O[C@@H]2CNC(=O)NC(C)C)CC1", "Potency": "inconclusive: 25.1 µM [inhibitor, partial curve]"}
{"smiles": "Cc1ccc2c(c1)c1c(c(=O)n(Cc3ccccc3)c(=O)n1Cc1ccccc1F)n2C", "Potency": "inconclusive: 2.24 µM [inhibitor, partial curve, poor fit]"}
{"smiles": "Cc1ccc(-c2csc3ncn(CC(=O)c4cc(C)n(C)c4C)c(=O)c23)s1", "Potency": "inactive"}
{"smiles": "CC1=NOC2(CCN(Cc3ccc(N(C)C)cc3)CC2)C1", "Potency": "inconclusive: 14.1 µM [inhibitor, partial curve, poor fit]"}
{"smiles": "CC(=O)N1CCN(c2oc(/C=C/c3ccc(Cl)cc3)nc2C#N)CC1", "Potency": "inactive"}
{"smiles": "Cc1cc(OC(C)C(=O)Nc2ccc3nsnc3c2)cc(C)c1Cl", "note": "(stereo unspecified)", "Potency": "inconclusive: 35.5 µM [inhibitor, single point]"}
{"smiles": "COc1ccc(OC)c(NC(=O)Cc2c(C)c3c(O)cc(C)cc3oc2=O)c1", "Potency": "inconclusive: 25.1 µM [inhibitor, partial curve, poor fit]"}
{"smiles": "CCOc1ccc(CCNC(=O)Cn2c(-c3cccs3)cc3ccccc32)cc1", "Potency": "inconclusive: 3.55 µM [inhibitor, partial curve, poor fit]"}
{"smiles": "CN1CCc2nc3sc(C(=O)c4ccc(F)cc4)c(N)c3cc2C1", "Potency": "inconclusive: 15.8 µM [inhibitor, partial curve, poor fit]"}
{"smiles": "Cc1noc([C@@H](C)NCc2cccc(Cl)c2)c1C(=O)O", "Potency": "inconclusive: 56.2 µM [inhibitor, single point]"}
{"smiles": "COC(=O)c1cc(C(C)C)sc1NC(=O)Cc1ccc(Cl)c(Cl)c1", "Potency": "inactive"}
{"smiles": "COc1ccc2[nH]c3c(c2c1)CCN(C)C31CCN(C(=O)c2ccco2)CC1", "Potency": "inconclusive: 14.1 µM [inhibitor, partial curve, poor fit]"}
{"smiles": "Clc1cccc(CNc2nc(-c3cccnc3)nc3ccccc23)c1", "Potency": "inconclusive: 39.8 µM [inhibitor, partial curve, poor fit]"}
{"smiles": "CN1C(C(=O)Nc2cccc(O)c2)=CC(c2cccs2)=NS1(=O)=O", "Potency": "inconclusive: 1.26 µM [inhibitor, partial curve, poor fit]"}
